Assay: soluble fraction after stress (log2 fold change); higher = more stays soluble; pooled small domains, quantitative proteomics
Conditions: stress: pH 4
Outline: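 Aggregation propensity is read out as the fold change in how much of each domain remains soluble after acid stress. The custom small-domain libraries were pooled, held at pH 4 and analysed with high-throughput quantitative proteomics. On the log2 scale used, higher values mean more of the domain stayed soluble.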

| Sequence | soluble fraction (log2) |
| --- | --- |
| HMEVITIENEDAFTEGRAFAHSEGILVGISSGAALKAATILAERPENKGKTIVALLPDSGDRYLSTALFA | -1.11 |
| HMGGKYKPLILWHLIEGTKRFSALQRLLPQATPRMLTMNLRELESDGLVHRKVYPEVPPKTEYSLSDLGK | -0.225 |

Source: the domain aggregation screens of Martell et al. (2025)
